Laboratory results taken from patent US7772236B2, “Substituted pyrazoles” (Ortho McNeil Pharmaceutical, Inc., priority 2000, dated 2010).

Biological target: Recombinant human cathepsin S (CatS) (Homo sapiens, UniProt P25774)
Experiment: biochemical

Compound | IC50
CC(=O)N1CCc2c(c(-c3ccc(Cl)cc3)nn2CCCN2CCN(c3ccccc3F)CC2)C1 [Example 1, 1-(3-(4-Chloro-phenyl)-1-{3-[4-(2-fluoro-phenyl)-piperazin-1-yl]-propyl}-1,4,6,7-tetrahydro-pyrazolo[4,3-c]pyridin-5-yl)-ethanone] | 890 nM
CC(=O)N1CCc2c(c(-c3ccc(Cl)cc3)nn2CC(O)CN2CCN(c3ccccc3C)CC2)C1 (centres unmarked) [Example 2, 1-{3-(4-Chloro-phenyl)-1-[2-hydroxy-3-(4-o-tolyl-piperazin-1-yl)-propyl]-1,4,6,7-tetrahydro-pyrazolo[4,3-c]pyridin-5-yl}-ethanone] | 1220 nM
COC(CN1CCN(c2ccccc2C)CC1)Cn1nc(-c2ccc(Cl)cc2)c2c1CCN(C(C)=O)C2 (centres unmarked) [Example 3, 1-{3-(4-Chloro-phenyl)-1-[2-methoxy-3-(4-o-tolyl-piperazin-1-yl)-propyl]-1,4,6,7-tetrahydro-pyrazolo[4,3-c]pyridin-5-yl}-ethanone] | 840 nM
CC(=O)N1CCc2c(c(-c3ccc(I)cc3)nn2CC(O)CN2CCN(c3ccccc3O)CC2)C1 (centres unmarked) [Example 4, 1-[1-{2-Hydroxy-3-[4-(2-hydroxy-phenyl)-piperazin-1-yl]-propyl}-3-(4-iodo-phenyl)-1,4,6,7-tetrahydro-pyrazolo[4,3-c]pyridin-5-yl]-ethanone] | 510 nM
CC(=O)N1CCc2c(c(-c3ccc(C(F)(F)F)cc3)nn2CC(O)CN2CCN(c3ccccc3C)CC2)C1 (centres unmarked) [Example 5, 1-[1-[2-Hydroxy-3-(4-o-tolyl-piperazin-1-yl)-propyl]-3-(4-trifluoromethyl-phenyl)-1,4,6,7-tetrahydro-pyrazolo[4,3-c]pyridin-5-yl]-ethanone] | 360 nM
CC(=O)N1CCc2c(c(-c3ccc(C(F)(F)F)cc3)nn2CC(O)CN2CCN(c3ccccc3C#N)CC2)C1 (centres unmarked) [Example 6, 2-(4-{3-[5-Acetyl-3-(4-trifluoromethyl-phenyl)-4,5,6,7-tetrahydro-pyrazolo[4,3-c]pyridin-1-yl]-2-hydroxy-propyl}-piperazin-1-yl)-benzonitrile] | 300 nM
Cc1ccccc1N1CCN(CC(O)Cn2ccc(-c3ccc(Cl)c(Cl)c3)n2)CC1 (centres unmarked) [Example 7, 1-[3-(3,4-Dichloro-phenyl)-pyrazol-1-yl]-3-(4-o-tolyl-piperazin-1-yl)-propan-2-ol] | 6600 nM
CC(=O)N1CCc2c(c(-c3ccc(C(F)(F)F)cc3)nn2CC(CN2CCN(c3ccccc3C)CC2)NCCN2CCNCC2)C1 (centres unmarked) [Example 8, 1-[1-[2-(2-piperazin-1-yl-ethylamino)-3-(4-o-tolyl-piperazin-1-yl)-propyl]-3-(4-trifluoromethyl-phenyl)-1,4,6,7-tetrahydro-pyrazolo[4,3-c]pyridin-5-yl]-ethanone] | 890 nM
CC(C)(C)OC(=O)N1CCc2c(c(-c3ccc(I)cc3)nn2CC(O)CN2CCN(c3ccccc3C#N)CC2)C1 (centres unmarked) [Example 9, 1-{3-[4-(2-Cyano-phenyl)-piperazin-1-yl]-2-hydroxy-propyl}-3-(4-iodo-phenyl)-1,4,6,7-tetrahydro-pyrazolo[4,3-c]pyridine-5-carboxylic acid tert-butyl ester] | 1140 nM
N#Cc1ccccc1N1CCN(CC(O)Cn2nc(-c3ccc(I)cc3)c3c2CCN(C(N)=O)C3)CC1 (centres unmarked) [Example 10, 1-{3-[4-(2-Cyano-phenyl)-piperazin-1-yl]-2-hydroxy-propyl}-3-(4-iodo-phenyl)-1,4,6,7-tetrahydro-pyrazolo[4,3-c]pyridine-5-carboxylic acid amide] | 50 nM
N#Cc1ccccc1N1CCN(CC(Cn2nc(-c3ccc(I)cc3)c3c2CCN(C(N)=O)C3)OC(N)=O)CC1 (centres unmarked) [Example 11, Carbamic acid 1-[5-carbamoyl-3-(4-iodo-phenyl)-4,5,6,7-tetrahydro-pyrazolo[4,3-c]pyridin-1-ylmethyl]-2-[4-(2-cyano-phenyl)-piperazin-1-yl]-ethyl ester] | 30 nM
CC(=O)N1CCc2c(c(-c3ccc(Cl)c(N)c3)nn2CC(O)CN2CCN(c3ccccc3C)CC2)C1 (centres unmarked) [Example 12, 1-{3-(3-Amino-4-chloro-phenyl)-1-[2-hydroxy-3-(4-o-tolyl-piperazin-1-yl)-propyl]-1,4,6,7-tetrahydro-pyrazolo[4,3-c]pyridin-5-yl}-ethanone] | 980 nM
CC(=O)N1CCc2c(c(-c3ccc(Br)cc3)nn2C[C@H](O)CN2CCN(c3cc(Cl)ccc3C)CC2)C1 [Example 13, (R)-1-(3-(4-Bromo-phenyl)-1-{3-[4-(5-chloro-2-methyl-phenyl)-piperazin-1-yl]-2-hydroxy-propyl}-1,4,6,7-tetrahydro-pyrazolo[4,3-c]pyridin-5-yl)-ethanone] | 770 nM
CC(=O)N1CCc2c(c(-c3ccc(C(F)(F)F)cc3)nn2CC(F)CN2CCN(c3ccccc3C#N)CC2)C1 (centres unmarked) [Example 14, 2-(4-{3-[5-Acetyl-3-(4-trifluoromethyl-phenyl)-4,5,6,7-tetrahydro-pyrazolo[4,3-c]pyridin-1-yl]-2-fluoro-propyl}-piperazin-1-yl)-benzonitrile] | 250 nM
COC(=O)C(=O)N1CCc2c(c(-c3ccc(Cl)c(C)c3)nn2CC(O)CN2CCN(c3ccccc3C#N)CC2)C1 (centres unmarked) [Example 15, (3-(4-Chloro-3-methyl-phenyl)-1-{3-[4-(2-cyano-phenyl)-piperazin-1-yl]-2-hydroxy-propyl}-1,4,6,7-tetrahydro-pyrazolo[4,3-c]pyridin-5-yl)-oxo-acetic acid methyl ester] | 120 nM
CS(=O)(=O)N1CCc2c(c(-c3ccc(C(F)(F)F)cc3)nn2CCCN2CCN(c3ccccc3[N+](=O)[O-])CC2)C1 [Example 16, 5-Methanesulfonyl-1-{3-[4-(2-nitro-phenyl)-piperazin-1-yl]-propyl}-3-(4-trifluoromethyl-phenyl)-4,5,6,7-tetrahydro-1H-pyrazolo[4,3-c]pyridine] | 60 nM
CS(=O)(=O)Nc1cccc(Cl)c1N1CCN(CCCn2nc(-c3ccc(C(F)(F)F)cc3)c3c2CCN(S(N)(=O)=O)C3)CC1 [Example 18, 1-{3-[4-(2-Chloro-6-methanesulfonylamino-phenyl)-piperazin-1-yl]-propyl}-3-(4-trifluoromethyl-phenyl)-1,4,6,7-tetrahydro-pyrazolo[4,3-c]pyridine-5-sulfonic acid amide] | 140 nM
CS(=O)(=O)Nc1cccc(Cl)c1N1CCN(CC(O)Cn2nc(-c3ccc(C(F)(F)F)cc3)c3c2CCN(S(C)(=O)=O)C3)CC1 (centres unmarked) [Example 19, N-[3-Chloro-2-(4-{2-hydroxy-3-[5-methanesulfonyl-3-(4-trifluoromethyl-phenyl)-4,5,6,7-tetrahydro-pyrazolo[4,3-c]pyridin-1-yl]-propyl}-piperazin-1-yl)-phenyl]-methanesulfonamide] | 60 nM
CS(=O)(=O)N1CCc2c(c(-c3ccc(C(F)(F)F)cc3)nn2CC(O)CN2CCN(c3c([N+](=O)[O-])cccc3[N+](=O)[O-])CC2)C1 (centres unmarked) [Example 20, 1-[4-(2,6-Dinitro-phenyl)-piperazin-1-yl]-3-[5-methanesulfonyl-3-(4-trifluoromethyl-phenyl)-4,5,6,7-tetrahydro-pyrazolo[4,3-c]pyridin-1-yl]-propan-2-ol] | 170 nM
COC(=O)c1cccc(NS(C)(=O)=O)c1N1CCN(CC(O)Cn2nc(-c3ccc(C(F)(F)F)cc3)c3c2CCN(S(C)(=O)=O)C3)CC1 (centres unmarked) [Example 21, 2-(4-{2-Hydroxy-3-[5-methanesulfonyl-3-(4-trifluoromethyl-phenyl)-4,5,6,7-tetrahydro-pyrazolo[4,3-c]pyridin-1-yl]-propyl}-piperazin-1-yl)-3-methanesulfonylamino-benzoic acid methyl ester] | 70 nM
